For one assay, the target named is ZAP-N-FLAG (human) (UniProt Q7Z2W4). The experiment in a line: co-IP; anti-FLAG IP of doxycycline-induced ZAP-L-FLAG or ZAP-N-FLAG from RNase A-treated lysates of 293T ZAP-/- TRIM25-/- KHNYN-/- N4BP1-/- cells transfected with 3xHA-tagged ZAP proteins; washes with 500 mM KCl; western blot (Fig. 2d).
In another assay the target is ZAP-L-FLAG (human) (UniProt Q7Z2W4). The description is as above.
In another assay the target is ZAP-D-3xHA (human) (UniProt Q7Z2W4). The assay is described as follows: co-IP; anti-HA IP of transfected 3xHA-tagged ZAP proteins, blot for TRIM25; text: endogenous TRIM25 of 293T cells; RNase A-treated lysates (Fig. 2f).
The target in another assay is ZAP-X-3xHA (human) (UniProt Q7Z2W4). The assay is described as above.
Assay [1] addresses ZAP-X RNA_(null) (R74A, R75A, K76A) (human) (UniProt Q7Z2W4). Described as above.
For another assay, the target named is ZAP-N-3xHA (human) (UniProt Q7Z2W4). The description is as above.
Assay [2] has as its target ZAP-L ΔRBD (HA-tagged) (human) (UniProt Q7Z2W4). The description is as above.
For the next assay, the target named is ZAP-L-3xHA (human) (UniProt Q7Z2W4). Described as above.

By UniProt entry, the sequences of proteins in these tests, tags left out. Where a name states a change or a piece, a line headed by the entry shows the natural chain unless it says otherwise. Chains listed by the source or under a name are the forms on record and can include a tag or linker. Residues count along the entry.
UniProt Q7Z2W4: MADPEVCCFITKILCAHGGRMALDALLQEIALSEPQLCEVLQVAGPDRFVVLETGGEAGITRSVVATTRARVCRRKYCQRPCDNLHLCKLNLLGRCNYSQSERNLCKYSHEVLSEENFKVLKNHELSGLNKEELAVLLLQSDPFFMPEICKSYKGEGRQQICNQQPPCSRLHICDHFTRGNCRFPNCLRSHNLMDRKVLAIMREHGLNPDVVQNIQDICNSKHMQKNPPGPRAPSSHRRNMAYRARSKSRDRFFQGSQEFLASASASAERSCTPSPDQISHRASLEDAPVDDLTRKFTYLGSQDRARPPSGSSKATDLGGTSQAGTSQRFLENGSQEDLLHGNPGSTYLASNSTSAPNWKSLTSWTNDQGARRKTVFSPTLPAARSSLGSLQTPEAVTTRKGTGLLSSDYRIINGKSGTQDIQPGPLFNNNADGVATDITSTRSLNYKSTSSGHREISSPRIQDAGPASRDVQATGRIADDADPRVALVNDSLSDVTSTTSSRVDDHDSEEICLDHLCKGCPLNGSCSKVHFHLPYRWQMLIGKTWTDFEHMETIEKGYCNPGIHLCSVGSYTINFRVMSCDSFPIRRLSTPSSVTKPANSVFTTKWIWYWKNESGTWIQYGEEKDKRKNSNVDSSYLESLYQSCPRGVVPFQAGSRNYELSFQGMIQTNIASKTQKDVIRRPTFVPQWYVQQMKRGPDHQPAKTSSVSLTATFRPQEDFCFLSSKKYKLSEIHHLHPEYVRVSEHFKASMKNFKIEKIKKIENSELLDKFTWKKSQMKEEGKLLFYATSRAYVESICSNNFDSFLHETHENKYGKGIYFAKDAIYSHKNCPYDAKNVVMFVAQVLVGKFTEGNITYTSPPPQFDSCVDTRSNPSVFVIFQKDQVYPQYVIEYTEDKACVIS
ZAP-L ΔRBD (HA-tagged): residues 255-902 of Q7Z2W4
ZAP-S-3xHA (Q7Z2W4-2, form named): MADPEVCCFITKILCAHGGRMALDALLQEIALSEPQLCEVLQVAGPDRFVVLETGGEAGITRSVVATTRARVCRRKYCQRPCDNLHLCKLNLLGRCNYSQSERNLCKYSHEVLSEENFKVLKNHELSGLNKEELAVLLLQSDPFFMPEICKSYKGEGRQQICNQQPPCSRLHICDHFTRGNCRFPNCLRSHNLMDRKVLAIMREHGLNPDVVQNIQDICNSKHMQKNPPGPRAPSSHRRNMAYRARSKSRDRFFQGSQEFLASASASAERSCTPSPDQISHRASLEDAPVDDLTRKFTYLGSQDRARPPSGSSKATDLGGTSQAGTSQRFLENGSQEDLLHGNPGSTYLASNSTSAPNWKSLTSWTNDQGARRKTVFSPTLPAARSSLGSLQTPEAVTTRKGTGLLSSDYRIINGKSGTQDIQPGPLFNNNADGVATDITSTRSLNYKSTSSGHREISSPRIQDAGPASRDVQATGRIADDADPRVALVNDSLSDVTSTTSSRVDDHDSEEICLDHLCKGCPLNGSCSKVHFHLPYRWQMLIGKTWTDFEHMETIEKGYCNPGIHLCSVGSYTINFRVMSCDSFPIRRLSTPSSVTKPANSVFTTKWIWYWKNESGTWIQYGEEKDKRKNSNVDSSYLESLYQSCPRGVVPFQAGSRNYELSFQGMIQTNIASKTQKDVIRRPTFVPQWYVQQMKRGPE
ZAP-X RNA_(null) (R74A, R75A, K76A) (Q7Z2W4, form named): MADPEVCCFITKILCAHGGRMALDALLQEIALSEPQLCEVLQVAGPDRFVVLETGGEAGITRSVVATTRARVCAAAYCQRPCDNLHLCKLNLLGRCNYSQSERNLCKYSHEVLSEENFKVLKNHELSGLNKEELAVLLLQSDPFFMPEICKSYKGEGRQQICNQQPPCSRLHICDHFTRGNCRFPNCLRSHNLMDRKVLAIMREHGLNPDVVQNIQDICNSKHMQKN
UniProt Q14258: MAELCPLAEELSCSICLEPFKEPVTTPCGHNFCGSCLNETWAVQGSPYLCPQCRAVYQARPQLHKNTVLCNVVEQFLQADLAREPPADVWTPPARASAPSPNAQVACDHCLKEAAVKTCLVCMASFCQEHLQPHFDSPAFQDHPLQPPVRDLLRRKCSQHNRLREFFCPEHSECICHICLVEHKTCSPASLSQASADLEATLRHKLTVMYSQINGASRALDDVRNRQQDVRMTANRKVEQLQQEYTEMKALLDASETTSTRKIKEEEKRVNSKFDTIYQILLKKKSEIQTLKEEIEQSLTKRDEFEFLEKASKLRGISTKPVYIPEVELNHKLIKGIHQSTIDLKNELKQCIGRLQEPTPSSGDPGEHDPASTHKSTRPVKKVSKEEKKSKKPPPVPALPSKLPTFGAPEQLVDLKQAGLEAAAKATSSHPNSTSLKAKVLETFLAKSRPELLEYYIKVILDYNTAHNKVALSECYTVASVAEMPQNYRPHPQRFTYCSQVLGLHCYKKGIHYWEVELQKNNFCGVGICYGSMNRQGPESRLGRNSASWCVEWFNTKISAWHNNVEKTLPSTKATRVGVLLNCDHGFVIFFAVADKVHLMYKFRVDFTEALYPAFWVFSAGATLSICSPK

No constants are given. Whether binding was seen depends on the method and setting. Binding seen in cells or lysates may run through a third protein. Some binding calls cover weakened binding; strength is not graded here.

As to “ZAP-L-3xHA (from UniProt Q7Z2W4-1 1-902)”, the binding result in the assay with ZAP-N-FLAG (human) was “binds weakly”.

Take “ZAP-D-3xHA (from UniProt Q7Z2W4 1-511) (domain or fragment)”: the binding entry with ZAP-N-FLAG (human) is on record as “binds weakly”; with ZAP-L-FLAG (human), “binds”.

Consider “ZAP-X-3xHA (from UniProt Q7Z2W4 1-227) (domain or fragment)”, for which the binding result with ZAP-N-FLAG (human) is on record as “binds weakly”; in the assay with ZAP-L-FLAG (human) it was “binds”.

As for “ZAP-L ΔRBD (HA-tagged) (from UniProt Q7Z2W4-1 255-902) (domain or fragment)”, the values for the binding result with ZAP-N-FLAG (human) and with ZAP-L-FLAG (human) were “binds weakly” and “binds”, respectively.

On to “ZAP-S-3xHA (from UniProt Q7Z2W4-2 1-699)”, for which the binding entry with ZAP-N-FLAG (human) is reported as “binds weakly”; in the assay with ZAP-L-FLAG (human), “binds”.

On to “ZAP-N-3xHA (from UniProt Q7Z2W4 1-254) (domain or fragment)”, for which the values for the binding entry in the assay with ZAP-N-FLAG (human) and in the assay with ZAP-L-FLAG (human) were “binds weakly” and “binds”, respectively.

As for “endogenous TRIM25 (from UniProt Q14258 1-630)”, the binding result with ZAP-D-3xHA (human) was “binds”; in the assay with ZAP-X-3xHA (human), “binds weakly”; in assay [1], “binds”; with ZAP-N-3xHA (human) it was “binds weakly”; in assay [2], “no binding”; with ZAP-L-3xHA (human), “binds”.

The values are drawn from article PMC11685948.
